In PubChem BioAssay AID1476 (National Center for Advancing Translational Sciences (NCATS), 2009):
Screen size: about 200,000 compounds; about 4,500 (2.2%) were called active. Inconclusive means that the source gave no clear call. Such entries were picked first, then a sample of the others. The call rests on the fitted dose curve; in most records, active means well fitted inhibition curve with a large enough effect; inconclusive means small, poorly fitted or top-dose-only effect, or effect the other way; inactive means flat fitted curve, though single readings scatter. Potencies beside an inconclusive call are fits to weak or partial responses and may not hold up.
Further: nearly all actives have a fitted effect of over 40% in size.
Potency means the concentration at half of the fitted maximal effect; tags describe the fitted curve by direction and shape.
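Wherever max response, negative = inhibition is given: plate controls were enzyme without inhibitor for no effect and buffer without enzyme for full effect.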

Each compound was assayed against Cruzipain (Trypanosoma cruzi) (UniProt P25779) (assay: qHTS Assay for Promiscuous and Specific Inhibitors of Cruzain (without detergent)). Details: purified cruzain, Z-FR-AMC fluorescence, no detergent.
UniProt P25779, sequence (P25779 whole entry, looked up): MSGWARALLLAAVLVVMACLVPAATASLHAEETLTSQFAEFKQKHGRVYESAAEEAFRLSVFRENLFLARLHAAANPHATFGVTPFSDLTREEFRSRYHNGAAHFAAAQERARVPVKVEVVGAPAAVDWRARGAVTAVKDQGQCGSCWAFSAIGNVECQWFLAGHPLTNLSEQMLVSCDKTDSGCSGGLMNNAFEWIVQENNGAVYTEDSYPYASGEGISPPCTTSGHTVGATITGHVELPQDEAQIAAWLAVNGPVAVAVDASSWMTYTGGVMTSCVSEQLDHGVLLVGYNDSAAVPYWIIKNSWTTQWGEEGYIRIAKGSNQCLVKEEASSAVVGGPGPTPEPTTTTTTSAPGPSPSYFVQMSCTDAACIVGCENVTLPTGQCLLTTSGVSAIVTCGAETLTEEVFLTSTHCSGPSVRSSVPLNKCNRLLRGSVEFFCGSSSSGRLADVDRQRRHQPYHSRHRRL
In short: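 Detergent-free condition (0.00005% Triton X-100) in acetate buffer pH 5.5 with DTT. 1.5 nM enzyme and compound were pre-mixed 15 min, then 2 uM Z-FR-AMC substrate added; reaction progress from fluorescence change between first and third reads (60 s).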
`COc1ccc(-c2nnc(SCC(=O)NC(=O)NCc3ccccc3)o2)cc1` was tested, and the Potency was inconclusive: 39.8 µM [inhibitor, single point]. In the case of `COc1ccc(C(=O)NC2(C(F)(F)F)C(=O)N(Cc3ccco3)C3=C2C(=O)CC(C)(C)C3)cc1OC` (stereo unspecified), the Potency is reported as inconclusive: 39.8 µM [activator, single point]. `Cc1cc(C)cc(NCc2cc(=O)oc3cc(-c4ccccc4)c(O)cc23)c1` was tested, and the Potency was inconclusive: 39.8 µM [inhibitor, single point]. `Cc1cccc2cc(CN(Cc3cccs3)Cc3nnnn3Cc3ccccc3)c(=O)[nH]c12` was tested, and the max response, negative = inhibition was inactive: 0.145%. With `Cc1cccc(C(=O)NCc2nnc3c4ccccc4c(-c4ccccc4)nn23)c1` the Potency was inconclusive: 39.8 µM [activator, single point]. In the case of `COc1ccc(C(=O)c2sc3nc4c(c(C(F)(F)F)c3c2N)CN(C(C)=O)CC4)cc1OC`, the Potency is reported as inconclusive: 39.8 µM [activator, single point]. `CCOC(=O)c1c(C)oc2cc(Br)c(OC(=O)N3CCOCC3)cc12` was tested, and the Potency was inconclusive: 31.6 µM [activator, single point]. In the case of `CCc1ccc(NC(=O)c2cc(-c3ccc(OC)cc3)on2)cc1`, the Potency is reported as active: 12.6 µM. `C=CCCc1ccc(C#N)c(SCc2c(C(=O)OCC)c3cc(OC(C)=O)c(Br)cc3n2C)n1` was tested, and the Potency was inconclusive: 5.01 µM [inhibitor, full curve]. For `CCOC(=O)N1CCC(NC(=O)CCc2nc(-c3ccc(C)cc3)no2)CC1`, the Potency was inconclusive: 31.6 µM [activator, single point]. For `Clc1ccc(-n2ncc3c(N4CCCC4)ncnc32)cc1`, the Potency was inconclusive: 39.8 µM [inhibitor, single point]. For `O=C(Oc1ccc(Br)cc1C(=S)N1CCCCC1)c1cc([N+](=O)[O-])cc([N+](=O)[O-])c1`, the Potency was inconclusive: 39.8 µM [inhibitor, single point]. For `COc1ccccc1-c1noc(-c2cc(OC)c(OC)c(OC)c2)n1`, the Potency was inconclusive: 31.6 µM [activator, single point]. For `CCCC(=O)OC(=O)CCC`, the max response, negative = inhibition was inactive: 1.01%. With `COc1ccc(NC2=CC(c3ccc(OC)c(OC)c3)N(c3ccc(OC)cc3)C2=O)cc1` (stereo unspecified) the Potency was inconclusive: 31.6 µM [activator, single point]. In the case of `CCC(=O)N1CCCc2cc(S(=O)(=O)N3CCC(C(=O)NCc4ccc(F)cc4)CC3)ccc21`, the max response, negative = inhibition is reported as inactive: -1.57%. With `CCOc1ccc(NC(=O)Cn2cnc3sc(C)c(S(=O)(=O)N4CCN(c5ccccc5OC)CC4)c3c2=O)cc1` the Potency was inconclusive: 20 µM [activator, single point]. In the case of `COc1ccc(NC(=O)c2ccco2)cc1NC(=O)C(C)(C)Oc1ccc(Cl)cc1`, the Potency is reported as inconclusive: 20 µM [activator, single point]. `CC1CCC(C(C)C)C(=O)C1` (stereo unspecified) was tested, and the max response, negative = inhibition was inactive: -2.54%. For `CCCCN(CCCC)S(=O)(=O)c1ccc2oc(C(=O)N3CCOCC3)c(C)c2c1`, the Potency was inconclusive: 31.6 µM [activator, single point]. For `CC(=O)Nc1ccc(S(=O)(=O)Nc2nc(CN3CCOCC3)nc3sc4c(c23)CCCC4)cc1`, the Potency was inconclusive: 31.6 µM [activator, single point]. `CCC(=O)O[C@]1(C(=O)CCl)[C@@H](C)C[C@H]2[C@@H]3CCC4=CC(=O)C=C[C@]4(C)[C@@]3(F)[C@@H](O)C[C@@]21C` was tested, and the Potency was inconclusive: 39.8 µM [activator, single point]. In the case of `COc1ccccc1Nc1sc(C(=O)c2ccc(F)cc2)c(N)c1S(=O)(=O)c1ccc(C)cc1`, the Potency is reported as active: 7.94 µM. For `CC(Oc1ccc2oc3ccccc3c2c1)C(=O)NC12CC3CC(CC(C3)C1)C2` (stereo unspecified), the Potency was inconclusive: 39.8 µM [inhibitor, single point]. With `COc1ccc(Br)cc1S(=O)(=O)Nc1cc(-c2cn3ccccc3n2)ccc1C` the Potency was inconclusive: 39.8 µM [inhibitor, single point]. `COc1cccc(/C=C/c2nc(C#N)c(N3CCC(C(N)=O)CC3)o2)c1` was tested, and the Potency was inconclusive: 3.98 µM [activator, partial curve]. In the case of `CCCCCCC(=O)Nc1c(O)c2ccccc2[nH]c1=O`, the Potency is reported as inconclusive: 31.6 µM [inhibitor, single point]. For `CC(C)N(C(=O)CSc1cn(CC(=O)N2CCCCCC2)c2ccccc12)C(C)C`, the max response, negative = inhibition was inactive: 1.01%. In the case of `CC(=O)Nc1ccc(Nc2cc(C)nc3c(-c4ccccc4)cnn23)cc1`, the Potency is reported as inconclusive: 39.8 µM [activator, single point]. `N=C1SC(c2ccccc2)C(=O)N1c1ncc(Cc2ccccc2Cl)s1` (stereo unspecified) was tested, and the Potency was inconclusive: 39.8 µM [inhibitor, single point]. `Cc1cccc(CC(=O)N2CC(=O)Nc3ccc(Br)cc3C2c2ccc(F)cc2)c1` (stereo unspecified) was tested, and the Potency was inconclusive: 39.8 µM [inhibitor, single point]. With `c1ccc(-c2ccc(C3=Nn4c(Cn5nnc6ccccc65)nnc4SC3)cc2)cc1` the Potency was inconclusive: 31.6 µM [inhibitor, single point]. In the case of `CN(C)CCCn1cnc2cc(Cl)c(Cl)cc21`, the max response, negative = inhibition is reported as inactive: 0.117%. `COc1cc(/C=N/NC(=S)Nc2cccc(Cl)c2C)ccc1OCC(=O)N1CC(C)OC(C)C1` (stereo unspecified) was tested, and the Potency was inconclusive: 25.1 µM [activator, single point]. With `Nc1ccc(N2CCCCCC2)cc1` the Potency was active: 31.6 µM. For `COc1ccc(-c2oc3ncn4nc(COc5ccccc5)nc4c3c2-c2ccc(OC)cc2)cc1`, the Potency was active: 3.98 µM. In the case of `COc1cc(NC(=O)C2=CC(c3ccc(F)cc3)=NS(=O)(=O)N2C)cc(OC)c1OC`, the max response, negative = inhibition is reported as inactive: 7.72%. In the case of `Cc1nc(SCC(=O)Nc2ccc3c(c2)OCCO3)c2oc3ccccc3c2n1`, the Potency is reported as inconclusive: 31.6 µM [activator, single point]. With `CCc1ccc(CNC(=O)CCc2c(C)nn(-c3ccc(N4CCCC4)nn3)c2C)cc1` the max response, negative = inhibition was inactive: 0.0163%. With `COc1cccc(-c2nn(-c3ccccc3)cc2C(=O)Nc2nccs2)c1` the Potency was inconclusive: 31.6 µM [inhibitor, single point]. With `COc1ccc(-c2nc(NC(=O)Cn3c(=O)oc4ccccc43)sc2C)cc1` the Potency was inconclusive: 31.6 µM [inhibitor, single point]. For `CCOc1cccc(N2C(=O)CC(N(CCc3ccc(OC)c(OC)c3)C(=O)CC)C2=O)c1` (stereo unspecified), the Potency was inconclusive: 25.1 µM [activator, single point]. For `COc1ccc(-c2c(C(F)(F)F)oc3cc(OCC(=O)Nc4ccccc4C(F)(F)F)ccc3c2=O)cc1OC`, the Potency was inconclusive: 10 µM [activator, partial curve]. With `Cc1ccccc1OCC(=O)NCC(=O)N/N=C/c1ccc(Br)o1` the Potency was inconclusive: 31.6 µM [inhibitor, single point]. With `COc1ccc(CNC(=O)CCc2c(C)nc3c(c(C)nn3-c3ccccc3)c2C)cc1` the Potency was inconclusive: 39.8 µM [activator, single point]. For `Cc1cccc(NC(=S)N/N=C/c2c[nH]c3ccccc23)c1`, the max response, negative = inhibition was inactive: -24.2%. With `Fc1ccccc1-c1nc(N2CCN(c3cccc(Cl)c3)CC2)c2ccccc2n1` the Potency was inconclusive: 39.8 µM [inhibitor, single point]. With `CCOc1ccc(CCNC(=O)c2cc(=O)[nH]c3ccc(S(=O)(=O)N4CCCCC4C)cc23)cc1OCC` (stereo unspecified) the Potency was inconclusive: 39.8 µM [activator, single point]. For `Cc1ccc(C)c(NC(=O)CSc2nnc([C@@H]3CCCN3C(=O)OC(C)(C)C)o2)c1`, the Potency was inconclusive: 31.6 µM [activator, single point]. For `CCN(CC)S(=O)(=O)c1cccc(-c2nnc(SCC(=O)c3cc(C)n(C)c3C)o2)c1`, the Potency was inconclusive: 39.8 µM [activator, single point]. `Cc1cccc(Nc2nnc(SCC(=O)Nc3ccccc3[N+](=O)[O-])s2)c1C` was tested, and the Potency was inconclusive: 39.8 µM [inhibitor, single point]. In the case of `COCCSc1nc2c([nH]c3ccccc32)c(=O)n1-c1ccc(OC)c(OC)c1`, the Potency is reported as inconclusive: 25.1 µM [activator, single point]. `CCCCn1c(CNC(=O)C23CC4CC(CC(C4)C2)C3)nnc1SCC(=O)Nc1ccc(C)cc1` was tested, and the Potency was inconclusive: 20 µM [activator, single point]. In the case of `COC(=O)/C=c1/s/c(=C(/C#N)C(=O)NCc2ccccc2)n(-c2ccccc2)c1=O`, the Potency is reported as inconclusive: 39.8 µM [activator, single point]. In the case of `CC(=O)N1CCc2cc(Br)cc(S(=O)(=O)N3CCC(C(=O)Nc4cccc(C)c4C)CC3)c21`, the max response, negative = inhibition is reported as inactive: 20.2%. `Cc1ccccc1-n1c(/C=C/c2ccc(N(C)C)cc2)nc2ccccc2c1=O` was tested, and the Potency was inconclusive: 31.6 µM [inhibitor, single point]. With `COc1ccccc1NS(=O)(=O)c1cc(NC(=O)c2ccncc2)ccc1N1CCOCC1` the Potency was inconclusive: 39.8 µM [activator, single point]. `COCCNC(=S)N1CCc2cc(OC)c(OC)cc2C1COc1ccc(C(C)C)cc1` (stereo unspecified) was tested, and the Potency was inconclusive: 20 µM [activator, partial curve, poor fit]. `CC1=C(/C=C/C(C)=C/C=C/C(C)=C\C=O)C(C)(C)CCC1` was tested, and the Potency was inconclusive: 39.8 µM [activator, single point]. For `COc1ccc(OC)c(CNC(=O)Nc2cn(CC(C)C)c(=O)c3ccccc23)c1`, the Potency was inconclusive: 31.6 µM [inhibitor, single point]. With `CCc1nnc(NC(=O)c2ccc(S(=O)(=O)NCC(C)C)cc2)s1` the Potency was inconclusive: 31.6 µM [inhibitor, single point].
